Holding throughout (test): microbe, parasite or virus in culture
Common to all, as to format: cell-based

Experiment [1] relates to HIV-1 variant strain with K103N/Y181C mutations in RT.
Experiment [2] has as its system HIV-1 variant strain with Y181C mutation in RT.
Experiment [3] has as its system IIIB strain of HIV-1 (wild-type).
Setting [4] is: Human immunodeficiency virus 1, MT2, read-out: 103N181C EC50, Table 1, 50% protection in MT-2 cells, NA = EC50 > CC50.
[5] abbreviates: Human immunodeficiency virus 1, MT2, read-out: K103N/Y181C EC50, Table 4, 50% protection in MT-2 cells, NA = EC50 > CC50.
Where [6] appears, read: Human immunodeficiency virus 1, MT2, Table 1, 50% protection in MT-2 cells, NA = EC50 > CC50, read-out: Y181C EC50.
[7] abbreviates: Human immunodeficiency virus 1, MT2, Table 4, 50% protection in MT-2 cells, NA = EC50 > CC50, read-out: Y181C EC50.
Setting [8] is: Human immunodeficiency virus 1, IIIB, MT2, Table 1, 50% protection in MT-2 cells, NA = EC50 > CC50, read-out: WT EC50.
The mark [9] stands for this setting: Human immunodeficiency virus 1, IIIB, MT2, Table 4, 50% protection in MT-2 cells, NA = EC50 > CC50, read-out: WT EC50.
Setting [10] is: Human immunodeficiency virus 1, MT2, text, MT-2 cell assay.
[11] abbreviates: Human immunodeficiency virus 1, MT2, read-out: 103N181C EC50, Table 3, 50% protection in MT-2 cells, NA = EC50 > CC50.
Where [12] appears, read: Human immunodeficiency virus 1, MT2, read-out: EC50 towards K103N/Y181C variant, MT-2 cell assay.
Where [13] appears, read: Human immunodeficiency virus 1, MT2, Table 3, 50% protection in MT-2 cells, NA = EC50 > CC50, read-out: Y181C EC50.
Where [14] appears, read: Human immunodeficiency virus 1, IIIB, MT2, Table 3, 50% protection in MT-2 cells, NA = EC50 > CC50, read-out: WT EC50.
[15] abbreviates: Human immunodeficiency virus 1, IIIB, MT2, text, MT-2 cell assay, read-out: EC50 towards wild-type HIV-1.
The mark [16] stands for this setting: MT-2 cell assay, read-out: EC50 towards wild-type HIV-1.

Where “and” joins values, the source holds several entries; their conditions need not be identical. Identical values can stand only once. Like-named read-outs stand apart in the source and are kept apart here.

On to `N#Cc1cc2c(Oc3ccc(F)cc3OCCn3ccc(=O)[nH]c3=O)cccc2o1` [12d, 4-(2-(2-(2,4-dioxo-3,4-dihydropyrimidin-1(2H)-yl)ethoxy)-4-fluorophenoxy)benzofuran-2-carbonitrile], for which the EC50 in experiment [1] (setting [4]) was 4 µM; in experiment [1] (setting [5]), 4 µM; in experiment [2] (setting [6]), 3.5 µM; in experiment [2] (setting [7]), 3.5 µM; in experiment [3] (setting [8]), 0.04 µM; in experiment [3] (setting [9]), 0.04 µM.
For `N#Cc1ccc2c(Oc3ccc(Cl)cc3OCCn3ccc(=O)[nH]c3=O)cc(F)cc2c1` [14m, 5-(4-chloro-2-(2-(2,4-dioxo-3,4-dihydropyrimidin-1(2H)-yl)ethoxy)phenoxy)-7-fluoro-2-naphthonitrile], the EC50 turned out to be 0.15 µM in experiment [1] (setting [5]), 0.032 µM in experiment [2] (setting [7]) and 0.005 µM in experiment [3] (setting [9]).
Turning to `N#Cc1cc2c(Oc3ccc(F)cc3OCCn3ccc(=O)[nH]c3=O)cc(Cl)cn2c1` [10i, 6-chloro-8-(2-(2-(2,4-dioxo-3,4-dihydropyrimidin-1(2H)-yl)ethoxy)-4-fluorophenoxy)indolizine-2-carbonitrile], the EC50 in experiment [1] (setting [4]) was found to be 0.11 µM; in experiment [2] (setting [6]) it was 0.16 µM; in experiment [2] (setting [10]), 0.16 µM; in experiment [3] (setting [8]), 0.0025 µM.
Regarding `N#Cc1ccc2c(Oc3ccc(F)cc3OCCn3ccc(=O)[nH]c3=O)cccc2c1` [14i, 5-(2-(2-(2,4-dioxo-3,4-dihydropyrimidin-1(2H)-yl)ethoxy)-4-fluorophenoxy)-2-naphthonitrile], the EC50 in experiment [1] (setting [11]) was 0.048 µM; in experiment [1] (setting [12]), about 0.01 µM; in experiment [1] (setting [5]) it was 0.048 µM; in experiment [2] (setting [13]) it was 0.01 µM; in experiment [2] (setting [7]), 0.01 µM; in experiment [3] (setting [14]), 0.00049 µM. Further, the EC50 was 0.00049 µM in experiment [3] (setting [9]); 0.0004 to 0.0005 µM in experiment [3] (setting [15]); ~0.0005 µM and 0.0005 µM in experiment [3] (setting [16]).
`N#Cc1cc2c(Oc3ccc(Cl)cc3OCCn3ccc(=O)[nH]c3=O)cc(Cl)cn2c1` [10n, 6-chloro-8-(4-chloro-2-(2-(2,4-dioxo-3,4-dihydropyrimidin-1(2H)-yl)ethoxy)phenoxy)indolizine-2-carbonitrile]: the EC50 in experiment [1] (setting [4]) came out at 0.53 µM; in experiment [2] (setting [6]), 0.41 µM; in experiment [3] (setting [8]), 0.022 µM.
Take `Cc1cc(Oc2ccccc2OCCn2ccc(=O)[nH]c2=O)c2cc(C#N)cn2c1` [10c, 8-(2-(2-(2,4-dioxo-3,4-dihydropyrimidin-1(2H)-yl)ethoxy)phenoxy)-6-methylindolizine-2-carbonitrile]: the values for the EC50 in experiment [1] (setting [4]), in experiment [2] (setting [6]) and in experiment [3] (setting [8]) were 0.032 µM, 0.8 µM and 0.0009 µM, respectively. For the same compound, the “activity towards the wild-type virus, in words” value in experiment [3] (MT-2 cell assay) is reported as “high picomolar inhibitors”.
As for `N#Cc1cc2c(Oc3ccccc3OCCn3ccc(=O)[nH]c3=O)cccn2c1` [10b, 8-(2-(2-(2,4-dioxo-3,4-dihydropyrimidin-1(2H)-yl)ethoxy)phenoxy)indolizine-2-carbonitrile], the EC50 was 0.011 µM in experiment [1] (setting [4]); 0.011 µM in experiment [1] (setting [12]); 0.011 µM in experiment [1] (setting [5]); about 0.01 µM in experiment [1] (read-out: EC50 towards K103N/Y181C variant, MT-2 cell assay); 0.31 µM in experiment [2] (setting [6]); 0.31 µM in experiment [2] (setting [7]). Also, the EC50 in experiment [3] (setting [8]), in experiment [3] (setting [9]) and in experiment [3] (setting [15]) was 0.00038 µM each time.
Take `N#Cc1ccc2c(Oc3ccccc3OCCn3ccc(=O)[nH]c3=O)cc(Cl)cc2c1` [14f, 7-chloro-5-(2-(2-(2,4-dioxo-3,4-dihydropyrimidin-1(2H)-yl)ethoxy)phenoxy)-2-naphthonitrile]: the EC50 in experiment [1] (setting [12]) is under 0.02 µM; in experiment [1] (setting [5]), 0.0075 µM; in experiment [2] (setting [7]), 0.013 µM; in experiment [2] (setting [10]) it was under 0.02 µM; in experiment [3] (setting [9]), 0.0022 µM.
In the case of `N#Cc1ccc2c(Oc3ccc(F)cc3OCCn3ccc(=O)[nH]c3=O)cc(F)cc2c1` [14l, 5-(2-(2-(2,4-dioxo-3,4-dihydropyrimidin-1(2H)-yl)ethoxy)-4-fluorophenoxy)-7-fluoro-2-naphthonitrile], the EC50 is 0.021 µM in experiment [1] (setting [11]); about 0.01 µM in experiment [1] (setting [12]); 0.021 µM in experiment [1] (setting [5]); 0.0056 µM in experiment [2] (setting [13]); 0.0056 µM in experiment [2] (setting [7]); 0.0019 µM in experiment [3] (setting [14]). Moreover, the results for the EC50 in experiment [3] (setting [9]) and in experiment [3] (setting [15]) were 0.0019 µM and 0.0004 to 0.0005 µM, respectively.
Regarding `N#Cc1cc2cccc(Oc3ccc(F)cc3OCCn3ccc(=O)[nH]c3=O)n2c1` [11a, 5-(2-(2-(2,4-dioxo-3,4-dihydropyrimidin-1(2H)-yl)ethoxy)-4-fluorophenoxy)indolizine-2-carbonitrile], the EC50 in experiment [1] (setting [4]) was 1.3 µM; in experiment [2] (setting [6]) it was 6.9 µM; in experiment [3] (setting [8]), 0.017 µM.
For `N#Cc1cc2c(Oc3ccc(Cl)cc3OCCn3ccc(=O)[nH]c3=O)cccn2c1` [10m, 8-(4-chloro-2-(2-(2,4-dioxo-3,4-dihydropyrimidin-1(2H)-yl)ethoxy)phenoxy)indolizine-2-carbonitrile], in that order: 0.9 µM, 1.8 µM and 0.0051 µM.
Regarding `N#Cc1ccc2c(Oc3ccc(Cl)cc3OCCn3ccc(=O)[nH]c3=O)cccc2c1` [14j, 5-(4-chloro-2-(2-(2,4-dioxo-3,4-dihydropyrimidin-1(2H)-yl)ethoxy)phenoxy)-2-naphthonitrile], the EC50 was determined as 0.29 µM in experiment [1] (setting [5]), 0.048 µM in experiment [2] (setting [7]) and 0.0015 µM in experiment [3] (setting [9]).
For `O=c1ccn(CCOc2ccccc2Oc2cccc3ccccc23)c(=O)[nH]1` [14a, 1-(2-(2-(naphthalen-1-yloxy)phenoxy)ethyl)pyrimidine-2,4(1H,3H)-dione], in that order: 5 µM, 5.7 µM and 0.06 µM.
For `O=c1ccn(CCOc2ccccc2Oc2cc(Cl)cc3cc(Cl)ccc23)c(=O)[nH]1` [14d, 1-(2-(2-((3,6-dichloronaphthalen-1-yl)oxy)phenoxy)ethyl)pyrimidine-2,4(1H,3H)-dione], the EC50 turned out to be 0.52 µM in experiment [1] (setting [5]), 0.43 µM in experiment [2] (setting [7]) and 0.038 µM in experiment [3] (setting [9]).
As for `N#Cc1cc2c(Oc3cc(F)ccc3OCCn3ccc(=O)[nH]c3=O)cccn2c1` [10j, 8-(2-(2-(2,4-dioxo-3,4-dihydropyrimidin-1(2H)-yl)ethoxy)-5-fluorophenoxy)indolizine-2-carbonitrile], the EC50 worked out at 0.22 µM in experiment [1] (setting [4]), 9 µM in experiment [2] (setting [6]) and 0.002 µM in experiment [3] (setting [8]).
Take `N#Cc1cc2c(Oc3ccccc3OCCn3ccc(=O)[nH]c3=O)cccc2[nH]1` [8d, 4-(2-(2-(2,4-dioxo-3,4-dihydropyrimidin-1(2H)-yl)ethoxy)phenoxy)-1H-indole-2-carbonitrile]: the EC50 in experiment [1] (setting [4]) is 5.5 µM; in experiment [1] (setting [5]), 5.5 µM; in experiment [2] (setting [6]) it was 38 µM; in experiment [2] (setting [7]) it was 38 µM; in experiment [3] (setting [8]), 0.056 µM; in experiment [3] (setting [9]) it was 0.056 µM. For the same compound, the EC50 in experiment [3] (setting [15]) stood at 0.056 µM.
Take `N#Cc1ccc2c(Oc3ccc(F)cc3OCCn3ccc(=O)[nH]c3=O)cc(Cl)cc2c1` [14g, 7-chloro-5-(2-(2-(2,4-dioxo-3,4-dihydropyrimidin-1(2H)-yl)ethoxy)-4-fluorophenoxy)-2-naphthonitrile]: the EC50 was found to be 0.046 µM in experiment [1] (setting [5]), 0.0053 µM in experiment [2] (setting [7]) and 0.0045 µM in experiment [3] (setting [9]).
As to `N#Cc1ccc2c(Oc3ccccc3OCCn3ccc(=O)[nH]c3=O)cccc2c1` [14e, 5-(2-(2-(2,4-dioxo-3,4-dihydropyrimidin-1(2H)-yl)ethoxy)phenoxy)-2-naphthonitrile], the EC50 in experiment [1] (setting [11]) was 0.015 µM; in experiment [1] (setting [12]) it was about 0.01 µM; in experiment [1] (setting [5]), 0.015 µM; in experiment [2] (setting [13]), 0.019 µM; in experiment [2] (setting [7]), 0.019 µM; in experiment [2] (setting [10]) it was under 0.02 µM. Further, the EC50 in experiment [3] (setting [14]) is 0.00053 µM; in experiment [3] (setting [9]) it was 0.00053 µM; in experiment [3] (setting [16]), 0.0005 µM.

For the origin of these results see patent publication US9382245B2, “Compounds and methods for treating HIV infections” (priority 2013, dated 2016).
